Experimental data: publication PMC4336329 (PLoS ONE, 2015)
Out of some 310,000 compounds screened, about 14,000 (4.5%) showed an effect of 50% or more. Effects have a minus sign here. The list shows a part of the results.

What follows are compounds tested against human ether-à-go-go-related gene (hERG) potassium channel (human, UniProt Q12809) (assay: primary screen, population patch clamp on CHO cells stably expressing hERG).
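Further: peak tail current of the secondary pulse compared with the same well before compound.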

Chain of human ether-à-go-go-related gene (hERG) potassium channel (Q12809 whole entry, looked up): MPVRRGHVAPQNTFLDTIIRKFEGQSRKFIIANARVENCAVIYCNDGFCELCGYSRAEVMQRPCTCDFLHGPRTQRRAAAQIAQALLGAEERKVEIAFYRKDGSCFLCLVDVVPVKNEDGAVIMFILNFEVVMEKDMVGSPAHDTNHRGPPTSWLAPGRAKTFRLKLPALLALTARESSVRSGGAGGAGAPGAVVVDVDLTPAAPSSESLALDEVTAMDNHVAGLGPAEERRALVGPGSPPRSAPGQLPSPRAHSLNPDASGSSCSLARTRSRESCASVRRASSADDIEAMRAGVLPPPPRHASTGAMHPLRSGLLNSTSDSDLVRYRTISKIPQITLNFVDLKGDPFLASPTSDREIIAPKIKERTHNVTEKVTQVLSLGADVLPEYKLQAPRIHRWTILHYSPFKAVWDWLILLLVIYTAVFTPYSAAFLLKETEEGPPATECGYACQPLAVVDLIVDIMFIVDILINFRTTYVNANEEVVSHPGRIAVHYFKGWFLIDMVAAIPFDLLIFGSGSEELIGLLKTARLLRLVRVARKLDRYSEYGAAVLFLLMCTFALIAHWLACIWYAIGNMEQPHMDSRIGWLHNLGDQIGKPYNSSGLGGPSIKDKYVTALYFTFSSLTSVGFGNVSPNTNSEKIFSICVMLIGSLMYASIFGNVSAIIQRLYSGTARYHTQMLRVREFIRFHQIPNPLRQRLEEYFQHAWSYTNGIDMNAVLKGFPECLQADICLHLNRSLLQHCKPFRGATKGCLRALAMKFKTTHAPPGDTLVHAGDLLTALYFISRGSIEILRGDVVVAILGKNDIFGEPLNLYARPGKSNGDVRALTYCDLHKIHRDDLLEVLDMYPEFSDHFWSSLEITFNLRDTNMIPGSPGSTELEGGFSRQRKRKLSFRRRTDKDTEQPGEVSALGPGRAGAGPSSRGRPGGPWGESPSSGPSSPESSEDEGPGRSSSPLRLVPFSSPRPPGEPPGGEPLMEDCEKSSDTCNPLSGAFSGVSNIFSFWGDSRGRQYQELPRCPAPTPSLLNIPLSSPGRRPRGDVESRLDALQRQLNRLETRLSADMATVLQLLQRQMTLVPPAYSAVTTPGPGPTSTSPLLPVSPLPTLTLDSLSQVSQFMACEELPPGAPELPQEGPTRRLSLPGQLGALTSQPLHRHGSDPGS

Point of comparison: COc1ccc(-c2cn[nH]c2-c2ccc(OCc3ccccc3F)cc2O)cc1OC, “hERG current change (%, negative = inhibition) at 10uM” value 1.6%. Against it:
- C=CCn1c(SCC(=O)c2ccc(Cl)s2)nc2ccccc2c1=O — higher, 8.5%
- CN(C)S(=O)(=O)c1ccc(C(=O)Nc2nc(-c3ccccc3)c(C(=O)c3ccccc3)s2)cc1 — higher, 7.84%
- O=C(CN(CC1CCCO1)C(=O)CNS(=O)(=O)c1ccc(Cl)cc1)NCC1CCCO1 (centres unmarked) — higher, 11.3%
- CC(=O)N1CCN(Cc2nc3cc(NC(=O)c4ccc(F)cc4)ccc3n2C)CC1 — lower, -8.9%
- CN(C)CCCC1(O)c2ccccc2CCc2ccccc21 — higher, 7.52%
- COc1ccc(CC(=O)Nc2ccc(-c3noc(COc4ccccc4C)n3)cc2)cc1 — higher, 2.1%
- COc1ccccc1NC(=O)COC(=O)c1cnc(C)cn1 — higher, 15.7%
- CC(=O)c1cccc(S(=O)(=O)NCC(c2ccco2)N2CCCCC2)c1 (centres unmarked) — lower, -24.1%
- C(=N\Nc1nc(-c2cccnc2)nc2ccccc12)/c1ccccc1 — lower, -24.7%
- COc1ccc(CCNC(=O)C(=O)N2CCCCC2)cc1OC — higher, 13.3%
- CCn1c(SCC(=O)Nc2ccc(-c3nc4ccc(C)cc4s3)cc2)nnc1-c1ccccc1 — higher, 4.57%
- Cc1cccc(CNCc2ccccc2)c1.Cl — lower, -7.31%
- C=CCN1C(=O)CN=C1Nc1ccc(F)cc1 — higher, 9.44%
- CC1=NN(C(=O)COc2ccccc2)C(O)(c2cccnc2)C1 (centres unmarked) — higher, 17.8%
- CCCn1c(N)c(C(=O)CN2CCN(S(=O)(=O)c3cccs3)CC2)c(=O)[nH]c1=O — lower, -22.9%
- CC(C)=NNc1nc(-c2ccccc2)c(C)s1 — higher, 11.9%
- CC1CCN(C(=O)c2[nH]cnc2C(=O)NCC(=O)OC(C)(C)C)CC1 — higher, 6.94%
- Cc1ccc(C)c(Cn2c3ccccc3c3cnn(CC(=O)NCCCN4CCCCC4)c(=O)c32)c1 — lower, -71.9%
- CCOc1cc(C(=O)OC(C)C(=O)Nc2ncc(Cl)cc2Cl)ccc1OCC(=O)N1CCOCC1 (centres unmarked) — higher, 2.21%
- FCCN(CCF)c1cccc(Cl)c1 — higher, 13%
- O=C(CSc1ccc(-c2cccnc2)nn1)Nc1ccc(Br)cc1 — lower, -35.9%
- Cn1cc(Br)c(C(=O)N2CCc3ccccc32)n1 — lower, -7.56%
- Cc1cc(C)cc(-c2nnc(SCC(=O)NCc3cccs3)o2)c1 — higher, 4.21%
- CC(C)(C)c1ccc(OCCC(=O)NNC(=O)c2ccncc2)cc1 — lower, -6.47%
- Cc1nnc(NC(=O)c2ccc(-c3ccc(Cl)cc3)o2)s1 — higher, 2.72%
- CC1CCCC(C)N1C(=O)CSc1nnc(-c2c[nH]c3ccccc23)o1 (centres unmarked) — lower, -4.87%
- CCSc1nnc(NC(=O)c2cccc(S(=O)(=O)N(C)c3ccccc3)c2)s1 — higher, 3.54%
- Cc1ccc(CN2CCN(Cc3ccc(O)cc3)CC2CCO)o1 (centres unmarked) — lower, -7.85%
- Cc1ccc(CCNC(=O)CCS(=O)(=O)c2ccc3c(c2)oc(=O)n3C)cc1 — higher, 13.8%
- COc1ccc(N2CC(C(=O)Nc3nc4ccccc4s3)CC2=O)cc1 (centres unmarked) — lower, -48.9%
- COc1ccc(Cl)cc1NC(=O)C/C(C)=N/NC(=O)CCc1ccccc1 — lower, -14%
- CCC(OC(=O)CN1C(=O)C(=O)c2ccccc21)C(=O)Nc1ccc(S(N)(=O)=O)cc1 (centres unmarked) — higher, 11.3%
- COc1cc(C(=O)OCC(=O)NC2CCCCC2)cc2c1OCCO2 — higher, 17.3%
- O=C1CCC(C(=O)N2CCOCC2)CN1Cc1ccc(Cl)cc1 (centres unmarked) — higher, 2.62%
- Cc1nn(-c2ccccc2)c(C)c1/C=N/NC(=O)CSc1nc2ccccc2c(=O)n1-c1ccc(Br)cc1 — higher, 3.58%
- COc1ccc(C2CC(c3ccccc3)=NN2C(=O)COC(=O)c2cc(S(=O)(=O)N3CCOCC3)ccc2F)cc1 (centres unmarked) — lower, -5.62%
- O=C1NCCN2CCCC12 (centres unmarked) — higher, 6.78%
- O=[N+]([O-])c1ccccc1CNC1CCCc2ccccc21 (centres unmarked) — lower, -5.95%
- COc1ccc(/C=N/NC(=O)CCn2nc(C)cc2C)cc1O — higher, 17.9%
- O=S(=O)(c1ccccc1)c1nc(-c2ccccc2)oc1N1CCCCC1 — lower, -12.8%
- COc1ccc2[nH]c(C(=O)O)c(CCNC(C)=O)c2c1 — higher, 9.27%
- Cc1cc(C(=O)NC(=S)Nc2cccc(NC(=O)C(C)C)c2)ccc1[N+](=O)[O-] — higher, 3.95%
- O=C1CC(c2ccccc2)CC(O)=C1C=Nc1ccc(Cl)cc1 (centres unmarked) — higher, 9.76%
- Cc1cc(C)cc(-n2nnnc2SCC(=O)N2CCOCC2)c1 — lower, -5.2%
- N#C/C(=N\Nc1ccc(F)cc1)C(=N)N1CCCCC1 — lower, -21.6%
- O=C(O)COc1c(Cl)cc(/C=C2/NC(=O)NC2=O)cc1Br — higher, 8.42%
- CCn1cc(S(=O)(=O)N2CCN(Cc3ccc(F)cc3)CC2)cn1 — lower, -7.27%
- Cc1ccnc(N=Cc2nc(-c3ccccc3Br)oc2O)c1 — lower, -2.4%
- CCOC(=O)c1c(C)n(-c2ccc(C)cc2)c2ccc(OCC(O)CNCC3CCCO3)cc12.O=C(O)C(=O)O (centres unmarked) — lower, -47.7%
- O=C(COC(=O)c1ccccc1Br)NCCc1ccc(F)cc1 — lower, -9.01%
- C/C(=N/NC(=O)c1ccoc1C)c1ccc(NC(=O)C2CCCC2)cc1 — higher, 10.8%
- CC(C)(C)C(=O)O/N=C(\N)COc1cccc(Cl)c1 — higher, 10.8%
- COc1ccccc1OCC(=O)NCCNC(=O)COc1ccccc1OC — higher, 3.06%
- N#CCC(CNc1ncc(C(F)(F)F)cc1Cl)OC(=O)c1c(F)cccc1F (centres unmarked) — lower, -1.98%
- Cc1cccc(CNc2ccc(C(CC(N)=O)NC(=O)c3ccccc3)cc2[N+](=O)[O-])c1 (centres unmarked) — lower, -2.08%
- Cc1ccc(S(=O)(=O)NC(CC(C)C)C(=O)N2CCN(C/C=C/c3ccccc3)CC2)cc1 (centres unmarked) — lower, -21.3%
- O=C1NC(=O)C(CCc2ccccn2)(Cc2ccc3c(c2)OCO3)C(=O)N1CCc1ccccc1 (centres unmarked) — higher, 3.03%
- CC(=O)c1ccc(NC(=S)N(C)C2CCN(C)CC2)cc1 — lower, -4.16%
- CCN(CC)Cc1cc2ccccc2c2c1COC2 — lower, -44.1%
- CCc1ccc2[nH]c(=O)c(C3C(C#N)=C(N)Oc4c3ccc3cccnc43)cc2c1 (centres unmarked) — lower, -13.2%
- Cc1ccc(NC(=O)CCC(=O)NNS(=O)(=O)c2ccccc2)c(C)c1 — higher, 18.4%
- CCCC(=O)Nc1ccc2c(c1)nc1n2CCN(CCOC)C1 — higher, 22.2%
- Cc1ccc(NC(=O)c2ccc(Cl)cc2Cl)cc1O — higher, 7.44%
- CCNC1CCS(=O)(=O)C1 (centres unmarked) — higher, 8.32%
- Cc1ccc(C)c(COC(=O)c2cc([N+](=O)[O-])ccc2N2CCOCC2)c1 — higher, 5.73%
- CCCNC(=O)CSCc1nc(-c2ccc(SC)cc2)oc1C — lower, -7.09%
- CC1CCN(C(=O)CCS(=O)(=O)c2cc3c(cc2Cl)NC(=O)CO3)CC1 — lower, -38.4%
- CC1=CC2/C=C(\C)CCC(O)C(O)/C=C/C(=O)C23C(=O)NC(CC(C)C)C3C1C (centres unmarked) — higher, 6.66%
- CNC(=O)CSc1cnc2ccccc2n1 — lower, -1.79%
- COc1ccc(/C=N/NC(=O)c2ccc(=O)[nH]n2)cc1OC — higher, 7.69%
- CC(=O)N1CCN(S(=O)(=O)c2cccc(C(=O)NC3CCCC3)c2)CC1 — lower, -3.65%
- Cc1ccc(OCC(=O)NC(=S)Nc2ccc(Br)c(C)n2)cc1 — higher, 3.83%
- COCCCn1c(=O)c2ccccc2c2ccccc2c1=O — lower, -9.39%
- Cc1ccc(C)c(NC(=O)COC(=O)CCc2ccc(S(=O)(=O)N3CCOCC3)cc2)c1 — higher, 4.78%
- Cc1ccc(S(=O)(=O)N2CCCCCC2)cc1[N+](=O)[O-] — lower, 0.823%
- COc1ccc(OCCn2cc(/C=C(\C#N)C(=O)NCc3ccco3)c3ccccc32)cc1 — higher, 15.5%
- CCCN[C@@H]1C(=O)N2C(C(=O)OCCC)=C(C)CS[C@H]12 — higher, 5.12%
- COc1ccc(C(NC(=O)c2ccco2)c2ccc(OC)c(OC)c2)cc1 (centres unmarked) — lower, -3.17%
- Cn1c(O)c(/C=C2\C=c3ccccc3=NC2=O)c(=O)n(C)c1=O — higher, 12.4%
- COc1cccc2[nH]c3c(N4CCC(C)CC4)ncnc3c12 — lower, -7.97%
- CC(C)C(c1nnnn1C1CCCC1)N1CCc2ccccc21 (centres unmarked) — higher, 5.61%
- Cc1cc(C)n2nc(CNS(=O)(=O)c3ccc(F)cc3)nc2n1 — higher, 9.98%
- CCOC(=O)C1C(c2ccc(O)cc2)NC(=O)NC1(O)C(F)(F)F (centres unmarked) — higher, 2.48%
- O=C(O)c1ccc(/C=N/NC(=O)C2CC2(c2ccccc2)c2ccccc2)cc1 (centres unmarked) — higher, 17.9%
- O=C(NOCc1ccccc1)c1ccc(Cl)cc1Cl — higher, 1.61%
- Cc1c(C(=O)Nc2ccccc2)sc2nc(-c3ccccc3)cn12 — lower, -4.89%
- CCc1cc(C(N)=O)c(NC(=O)c2ccc(OC)cc2)s1 — lower, -18.4%
- Cl.c1ccc(OCCOCCN2CCc3ccccc3C2)cc1 — lower, -42.8%
